# Where “and” joins values, the source holds several entries; their conditions need not be identical. Identical values can stand only once. Among all 48,000 compounds or so, about 1,200 (2.5%) were called active. Not shown: some 2% with an inconclusive outcome.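 The calls were made as follows: active = activation of at least 60% and not above a set upper limit (about 1 call in 100 departs from these limits); inconclusive = activation of 40% to 60%, or above that upper limit; inactive = activation under 40%.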 The list shows a part of the results.
# Biological target: Probable G-protein coupled receptor 32 (Homo sapiens) (UniProt O75388)
# Sequence of UniProt O75388 (O75388 whole entry, looked up): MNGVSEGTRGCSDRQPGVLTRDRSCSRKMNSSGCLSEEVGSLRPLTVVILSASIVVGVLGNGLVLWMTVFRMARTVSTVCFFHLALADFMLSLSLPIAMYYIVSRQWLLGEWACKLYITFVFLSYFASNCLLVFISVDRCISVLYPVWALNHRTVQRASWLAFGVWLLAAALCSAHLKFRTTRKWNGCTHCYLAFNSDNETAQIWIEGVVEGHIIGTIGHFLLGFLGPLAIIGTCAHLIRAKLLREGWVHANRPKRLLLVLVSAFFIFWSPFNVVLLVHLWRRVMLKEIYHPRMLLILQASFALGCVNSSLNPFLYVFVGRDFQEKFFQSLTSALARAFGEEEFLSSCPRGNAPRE
# Assay: qHTS for Agonists of Human Resolvin D1 Receptor DRV1; also: 0% is about no effect
# Settings: CHO-K1 GPR32 beta-arrestin PathHunter luminescence, 90 min; at 76.9 µM; hits give high values; zero percent set by DMSO-only wells
# How it was run: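 Using DMSO wells as EC0, agonist-induced signal was taken as chemiluminescence from beta-Gal reconstituted upon beta-arrestin recruitment to GPR32 in CHO-K1 cells after 90 min compound treatment.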
row,Compound,activation
1,COc1ccccc1CNC(=O)CCCCn1c(=O)c2ccccc2n(Cc2c(C)cc(C)cc2C)c1=O,inactive: 0.879%
2,COc1ccc(CNC(=O)Cn2c(=O)oc3cc(S(=O)(=O)N4CCCCCC4)ccc32)cc1,active: 60.6%
3,COc1ccc(N2CCN(C(=O)CCc3c(C)nc4c(-c5ccccc5)c(C)nn4c3C)CC2)cc1,inactive: -1.12%
4,O=S(=O)(NCC(c1ccco1)S(=O)(=O)c1ccccc1)c1ccccc1 (stereo not given),inactive: -11.5%
5,Cc1c(C(=O)Nc2ccc(F)c(F)c2)oc2ccc(S(=O)(=O)N3CCCCC3)cc12,inactive: 8.96%
6,COc1ccccc1CNC(=O)CCc1c(C)c2ccc(OC)c(C)c2oc1=O,inactive: -3.28%
7,Cc1cn([C@H]2C=C[C@@H](CO)O2)c(=O)[nH]c1=O,inactive: -15.4% and inactive: 0.461%
8,Cc1cc(N2CCN(C)CC2)nc2ccc(NC(=O)Nc3ccccc3Br)cc12,active: 103%
9,CCOc1ccc(S(=O)(=O)N(CC(=O)Nc2cccnc2)c2ccccc2)cc1,inactive: 13.2%
10,Cc1cc(C)n2nc(SCC(=O)Nc3cc(Cl)ccc3C)nc2n1,inactive: -1.4%
11,COc1ccc(CCNC(=O)c2ccc3c(c2)N(Cc2ccc(C)cc2)CCS3)cc1OC,inactive: -18.6%
12,CC1=C(C(N)=O)C(c2ccc(C(C)C)cc2)n2nc(SCc3ccccc3)nc2N1 (stereo not given),inactive: -3.09%
13,CCOc1ccccc1C1C(C(=O)Nc2ccccc2)=C(C)Nc2c(C(=O)Nc3ccc(F)cc3)cnn21 (stereo not given),inactive: -19.3%
14,CCn1cc(C(=O)N2CCN(c3ccc(OC)cc3)CC2)c2cc(OC)c(OC)cc2c1=O,inactive: -7.75%
15,Cc1ccccc1Cn1c2ccccc2c2cnn(CC(=O)N3CCC(C)CC3)c(=O)c21,inactive: -5.9%
16,Cc1ccc(NC(=O)Cn2cc(C(=O)c3ccco3)c3ccccc32)cc1,inactive: -14.2%
17,CCOc1ccc(-c2cccc(NS(=O)(=O)c3ccccc3C(F)(F)F)c2)nn1,inactive: 5.17%
18,CCc1ccc(NC(=O)N2CCC(N3CCN(Cc4ccc(C)cc4)C(=O)C3=O)CC2)cc1,inactive: -14.9%
19,COc1ccc(-c2cc3nccc(-c4cc(Cl)c(C)cc4O)n3n2)cc1,inactive: 15.1%
20,CCn1c(C(=O)N2CCCC(C(=O)N3CCN(c4ccccc4)CC3)C2)cc2sccc21 (stereo not given),inactive: 34.9%
21,Cc1nn(CC(=O)NCCc2ccccc2)c(=O)c2c1sc1ccccc12,inactive: -9.37%
22,CCOc1ccccc1NC(=O)CSC1=Nc2ccccc2C2=NC(CC(=O)NCc3ccc4c(c3)OCO4)C(=O)N12 (stereo not given),inactive: -16.9%
23,O=c1cc(-c2ccccc2)n2c(SCc3ccc(Br)cc3)nnc2[nH]1,inactive: -0.0537%
24,COc1ccc(-n2ccnc(NCCc3ccc(Cl)cc3)c2=O)cc1OC,active: 105%
25,COc1ccccc1CN1C(=O)C(=O)c2cccc(C)c21,inactive: -23.6%
26,Cc1ccc(S(=O)(=O)NCC(c2ccc(N(C)C)cc2)N2CCc3ccccc32)cc1 (stereo not given),inactive: -35.8%
27,CCCCSCCCNC(=O)c1c[nH]c2ccc(S(=O)(=O)Nc3cccc(OC)c3)cc2c1=O,inactive: -9.28%

row,Compound,activation
1,Cc1cc2nc(N(Cc3cccnc3)C(=O)c3ccc(Cl)s3)sc2cc1C,inactive: -6.53%
2,CCC(C)NC(=O)Cn1c(=O)n(-c2ccc(C)c(C)c2)c(=O)c2c(C)c(C(=O)N(CC)CC)sc21 (stereo not given),inactive: -0.931%
3,CCN(Cc1ccccc1)Cc1c(O)ccc2oc(C)c(C(=O)Nc3ccccc3C)c12,inactive: -13.6%
4,O=C(Cc1ccccc1)Nc1nnc2n1CCS2,inactive: -3.56%
5,CC(=O)N1c2ccc(S(=O)(=O)N(C)CC(=O)N(Cc3ccccc3)C(C)C)cc2CC1C (stereo not given),inactive: 0.0281%
6,CC(C)(C)c1ccc(C(=O)N2CCN(CCc3ccccn3)CC2)cc1,inactive: 6.12%
7,CCOc1ccc(C(=O)c2cn(CC(=O)Nc3ccc(F)c(F)c3)c3cc4c(cc3c2=O)OCCO4)cc1,inactive: 18.6%
8,COc1cccc(NC(=O)CCc2nc(-c3cccs3)no2)c1,inactive: 15.5%
9,CSc1ncc(Cl)c(C(=O)Nc2c(C(=O)c3ccc(C)c(F)c3)oc3ccccc23)n1,inactive: 16.8%
10,CCOc1ccc(C2C(=O)N(C3CCCCC3)CC(=O)N2CCC2=CCCCC2)cc1OC (stereo not given),inactive: -35.7%
11,Cc1cccc(OC(=O)c2cc(-c3ccc4c(c3)OCCO4)on2)c1C,inactive: 7.98%
12,COc1cccc(CNC(=O)C(Cc2ccccc2)NS(=O)(=O)c2ccc3c(c2)oc(=O)n3C)c1 (stereo not given),inactive: 16.3%
13,Cc1cc2[nH]c(=O)c(=O)[nH]c2cc1S(=O)(=O)Nc1ccc(OC(F)(F)F)cc1,inactive: 4.38%
14,O=C(Nc1cccc(C(=O)Nc2ccc(S(=O)(=O)O)c3cc(S(=O)(=O)O)cc(S(=O)(=O)O)c23)c1)Nc1cccc(C(=O)Nc2ccc(S(=O)(=O)O)c3cc(S(=O)(=O)O)cc(S(=O)(=O)O)c23)c1,inactive: 1.59%
15,Cc1cccc(NC(=O)c2ccc3nc(CCc4ccccc4)oc3c2)c1C,inactive: -12.3%
16,COc1ccc(-c2noc(CSc3nc(N)cc(=O)[nH]3)n2)cc1,active: 98.3%
17,Cc1cccc(N2CCN(c3ccc(NC(=O)c4ccccc4)cc3C(=O)O)CC2C)c1 (stereo not given),inactive: 29.6%
18,Cc1ncc(CO)c2c1Oc1nc(-c3ccc(F)cc3)nc(SCc3ccc(F)cc3Cl)c1C2,inactive: 38.6%
19,O=C(NCc1ccc(F)cc1)c1ccc2c(c1)nc1n2CCCCC1,inactive: -8.4%
20,CCOc1ccccc1C(=O)Nc1ccc2nc3c(c(Nc4ccc(OC)c(OC)c4)c2c1)CCCC3,inactive: -20.6%
21,CCOC(=O)c1ccc(NC(=O)CN2Cc3ccccc3C2=O)cc1,inactive: -6.32%
22,COc1ccccc1C(=O)Nc1onc2c1CCCC2,inactive: -14.5%
23,O=C(Nc1ccccc1)c1ccc2c(O)c(S(=O)(=O)c3ccc(Cl)cc3)c(=O)[nH]c2c1,inactive: -11.9%
24,Cc1cc(Nc2cccc(Cl)c2)nc2ccc(NC(=O)c3cccc(N(C)C)c3)cc12,inactive: 5.59%
25,COc1ccc(-c2noc(-c3nnn(-c4ccc(C(C)C)cc4)c3C)n2)cc1OC,inactive: -12.4%
26,CCCS(=O)(=O)N1CCC(N2CCN(Cc3ccc(F)cc3)C(=O)C2=O)CC1,inactive: 9.28%
27,Cc1cc(O)c2c(C)c(CC(=O)N3CCCCC3)c(=O)oc2c1,inactive: 15.9%

row,Compound,activation
1,CCn1c(=O)c2sccc2n2c(CCC(=O)Nc3ccc(OC)cc3OC)nnc12,inactive: 36.7%
2,CCc1ccccc1NC(=O)CN1C(=O)c2cccnc2Sc2ccccc21,inactive: -16.3%
3,COc1ccc(-c2nc3ccccc3s2)cc1NC(=O)c1cccc([N+](=O)[O-])c1C,inactive: -12.9%
4,COCc1nc2ccccc2n1Cc1cccc(C)c1,inactive: 1.66%
5,O=c1c2ccccc2n(Cc2c(F)cccc2Cl)c(=O)n1Cc1ccccc1,inactive: -4.3%
6,CCn1c(=N)c(C(=O)NCC2CCCO2)cc2c(=O)n3cc(C)ccc3nc21 (stereo not given),inactive: -9.07%
7,O=S(=O)(NCC(c1ccccc1)N1CCc2ccccc21)c1ccccc1 (stereo not given),inactive: -24.1%
8,Cc1ccc(Cn2c(CNC(=O)Cc3cccc([N+](=O)[O-])c3)nc3cccnc32)cc1,inactive: -14.9%
9,CCCOc1ccc(NC(=O)CC2C(=O)N(c3ccc(F)cc3)C(=O)N2CC(C)C)cc1 (stereo not given),inactive: -21.4%
10,CCn1c(=O)cc(OCC(=O)N2CCN(c3cccc(Cl)c3)CC2)c2ccccc21,inactive: 18.2%
11,Cc1ccc2c(c1)sc1nc(=O)n(-c3ccc(Cl)c(Cl)c3)c(=O)n12,inactive: 4.88%
12,COc1ccc(C2=C(C)C(=NCc3ccc(OC(C)C)cc3)NS2(=O)=O)cc1,inactive: -14.8%
13,Cc1ccc(S(=O)(=O)N2CCN(Cc3ccc4c(c3)OCO4)CC2)cc1,inactive: 0.184%
14,CCc1ccc(-c2cc(C)no2)cc1S(=O)(=O)Nc1cc(OC)c(OC)c(OC)c1,inactive: -9.88%
15,CCCCOc1ccc(CNC(=O)C2CCCN(c3nnc(-n4c(C)ccc4C)s3)C2)cc1 (stereo not given),inactive: -9.46%
16,CC(=O)Nc1ccc(S(=O)(=O)Nc2cccc(-c3ccc(N4CCCCCC4)nn3)c2)cc1,inactive: -0.188%
17,COc1ccc(C(=O)NCCn2cc(SCC(=O)Nc3ccc(F)cc3)c3ccccc32)cc1,inactive: 22.8%
18,CCNc1ccc(-c2nc(-c3ccncc3)no2)cc1[N+](=O)[O-],inactive: 5.73%
19,CNC(=O)c1cc(Oc2ccc(NC(=O)Nc3ccc(Cl)c(C(F)(F)F)c3)cc2)ccn1,active: 92%
20,COc1cccc2c1C(=O)c1c(O)c3c(c(O)c1C2=O)C[C@@](O)(C(C)=O)C[C@@H]3O[C@H]1C[C@H](N)[C@H](O)[C@H](C)O1,inactive: -63.7%
21,Cc1nn(CCCC(=O)Nc2cccc(C(F)(F)F)c2)c(=O)c2nn(-c3ccccc3)c(C)c12,inactive: -8.79%
22,CCn1cc(C(=O)NCCc2ccc(Cl)cc2)c(=O)c2cc(S(=O)(=O)N3CCCCCC3)ccc21,inactive: -1.44%
23,CCN1CCN(C(=O)N[C@@H](C(=O)N[C@@H]2C(=O)N3[C@@H]2SC(C)(C)[C@H]3C(=O)O)c2ccccc2)C(=O)C1=O,inactive: -7.07%
24,O=C(COc1ccccc1F)Nc1ccc2nc(SCC(=O)N3CCCC3)sc2c1,inactive: 10.9%
25,Cc1ccc2c(=O)c(C(=O)c3ccccc3)cn(CC(=O)Nc3ccccc3C)c2n1,inactive: -1.36%
26,COc1cc(NC(=O)Cn2cnc3sc(C)c(S(=O)(=O)N4CCC(C)CC4)c3c2=O)cc(OC)c1OC,inactive: 4.2%

# — PubChem BioAssay AID1346428 (National Center for Advancing Translational Sciences (NCATS), 2018)
